Assay results: publication PMC9974451
Changes are numbered by the printed parent chain. Results are given in words; binding and its absence hold for the method and conditions named. Some binding calls cover weakened binding; strength is not graded here. Tags and fused reporters may be left off the sequences shown. Each block holds one binder with its values, some of them ahead of it.

The chains behind the UniProt entries cited, without tags or fusion partners. Residues count along the entry.
UniProt Q92973, residues 9-898: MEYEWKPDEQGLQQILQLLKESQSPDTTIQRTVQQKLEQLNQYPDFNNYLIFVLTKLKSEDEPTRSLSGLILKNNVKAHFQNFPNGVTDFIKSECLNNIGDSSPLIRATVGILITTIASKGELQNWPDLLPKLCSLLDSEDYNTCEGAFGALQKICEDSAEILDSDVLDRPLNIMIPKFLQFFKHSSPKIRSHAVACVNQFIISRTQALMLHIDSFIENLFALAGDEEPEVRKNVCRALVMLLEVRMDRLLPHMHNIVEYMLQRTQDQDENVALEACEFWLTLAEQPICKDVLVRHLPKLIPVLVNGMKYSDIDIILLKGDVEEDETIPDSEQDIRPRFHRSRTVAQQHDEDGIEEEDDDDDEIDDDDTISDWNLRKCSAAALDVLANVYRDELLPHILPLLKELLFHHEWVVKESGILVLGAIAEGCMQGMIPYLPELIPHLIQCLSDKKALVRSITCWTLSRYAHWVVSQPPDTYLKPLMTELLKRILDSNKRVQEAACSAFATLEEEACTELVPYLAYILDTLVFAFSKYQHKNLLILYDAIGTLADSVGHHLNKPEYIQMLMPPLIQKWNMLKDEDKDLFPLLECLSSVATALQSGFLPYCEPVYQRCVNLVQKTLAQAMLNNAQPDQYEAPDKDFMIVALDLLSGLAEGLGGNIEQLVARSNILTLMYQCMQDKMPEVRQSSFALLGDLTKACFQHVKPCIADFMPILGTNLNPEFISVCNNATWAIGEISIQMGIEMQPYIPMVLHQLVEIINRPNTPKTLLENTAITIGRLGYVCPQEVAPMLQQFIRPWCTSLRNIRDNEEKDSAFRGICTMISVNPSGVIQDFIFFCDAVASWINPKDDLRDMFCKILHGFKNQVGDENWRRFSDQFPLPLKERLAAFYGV
UniProt Q14974: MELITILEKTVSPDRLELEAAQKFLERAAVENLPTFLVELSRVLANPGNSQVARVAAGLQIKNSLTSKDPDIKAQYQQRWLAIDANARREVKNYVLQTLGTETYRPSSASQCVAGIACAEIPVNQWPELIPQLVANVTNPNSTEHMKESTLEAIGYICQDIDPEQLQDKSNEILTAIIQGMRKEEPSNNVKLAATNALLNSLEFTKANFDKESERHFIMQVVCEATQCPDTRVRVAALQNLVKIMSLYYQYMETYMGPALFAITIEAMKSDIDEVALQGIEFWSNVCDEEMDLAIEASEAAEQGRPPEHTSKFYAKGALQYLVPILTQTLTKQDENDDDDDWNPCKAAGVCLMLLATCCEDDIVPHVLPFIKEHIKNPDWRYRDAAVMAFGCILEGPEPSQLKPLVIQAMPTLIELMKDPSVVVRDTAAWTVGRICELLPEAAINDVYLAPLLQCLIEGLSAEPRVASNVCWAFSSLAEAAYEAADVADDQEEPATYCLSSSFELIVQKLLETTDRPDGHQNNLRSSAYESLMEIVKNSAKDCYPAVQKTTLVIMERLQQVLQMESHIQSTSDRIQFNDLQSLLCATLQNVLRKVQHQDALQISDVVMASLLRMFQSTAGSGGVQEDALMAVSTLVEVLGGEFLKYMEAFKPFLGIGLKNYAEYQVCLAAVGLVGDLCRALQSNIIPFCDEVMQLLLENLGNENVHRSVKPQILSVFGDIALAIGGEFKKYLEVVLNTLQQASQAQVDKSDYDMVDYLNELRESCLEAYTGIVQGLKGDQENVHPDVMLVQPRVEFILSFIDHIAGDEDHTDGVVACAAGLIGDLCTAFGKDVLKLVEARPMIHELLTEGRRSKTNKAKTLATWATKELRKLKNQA

Assays:
[1] = target: His-TNPO1 (transportin 1) (UniProt Q92973); assay: condition: only with a 3-fold molar excess of RanQ69L(1-180)-GTP; SEC; as a6, with a 3-fold molar excess of RanQ69L(1-180)-GTP; both purified
His-importin 13 = target: T1, His-importin 13 (UniProt O94829); assay: as above
T1 sequence: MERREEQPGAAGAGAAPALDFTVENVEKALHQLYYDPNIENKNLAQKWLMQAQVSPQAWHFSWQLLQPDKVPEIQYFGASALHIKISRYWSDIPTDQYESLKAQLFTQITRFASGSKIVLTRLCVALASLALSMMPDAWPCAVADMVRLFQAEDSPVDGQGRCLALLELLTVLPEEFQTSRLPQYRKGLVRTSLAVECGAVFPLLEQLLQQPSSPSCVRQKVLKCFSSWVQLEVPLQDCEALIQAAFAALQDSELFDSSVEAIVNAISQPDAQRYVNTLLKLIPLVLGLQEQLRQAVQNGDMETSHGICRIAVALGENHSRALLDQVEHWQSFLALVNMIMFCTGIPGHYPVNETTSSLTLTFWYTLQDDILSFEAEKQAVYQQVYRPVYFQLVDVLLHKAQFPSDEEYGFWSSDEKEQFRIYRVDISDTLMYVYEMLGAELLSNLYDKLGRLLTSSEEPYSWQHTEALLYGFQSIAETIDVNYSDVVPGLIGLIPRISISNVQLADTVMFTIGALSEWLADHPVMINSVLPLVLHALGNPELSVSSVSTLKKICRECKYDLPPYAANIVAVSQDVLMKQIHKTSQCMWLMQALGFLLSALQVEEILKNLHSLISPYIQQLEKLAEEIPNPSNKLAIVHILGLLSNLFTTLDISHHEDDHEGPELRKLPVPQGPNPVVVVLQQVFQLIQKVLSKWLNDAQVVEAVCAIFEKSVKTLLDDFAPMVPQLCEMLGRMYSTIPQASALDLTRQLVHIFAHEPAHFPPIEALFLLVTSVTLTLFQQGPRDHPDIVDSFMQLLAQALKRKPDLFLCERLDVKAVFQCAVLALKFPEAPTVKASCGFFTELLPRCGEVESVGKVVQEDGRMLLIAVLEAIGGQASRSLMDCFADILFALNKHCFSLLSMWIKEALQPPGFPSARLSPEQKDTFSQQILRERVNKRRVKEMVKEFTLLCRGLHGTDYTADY

[2] = target: His-TNPO1 (transportin 1) (UniProt Q92973); assay: SEC; His-NOSIP preincubated with one His-tagged NTR at 1:1 in TPB, 1-2 h, 4 °C; Superdex S200 increase 10/300 GL; fractions by SDS-PAGE, Coomassie; both purified
[3] = target: His-TNPO1 (transportin 1) (UniProt Q92973); assay: cross-linking; 20 μM His-NOSIP and 20 μM His-TNPO1, complex purified by size exclusion chromatography, BS3 in 300-fold molar excess, 30 min, RT; cross-linked peptides by mass spectrometry; both purified
[4] = target: His-S-importin β (full length) (UniProt Q14974); assay: condition: only with His-importin α (importin α:importin β:NOSIP 1:1:3); SEC; His-importin α : His-importin β : NOSIP at 1:1:3 in TPB; Superdex S200 increase 10/300 GL; fractions by SDS-PAGE, Coomassie; both purified
[5] = target: T2, His-NOSIP-MBP (nitric oxide synthase interacting protein) (UniProt Q9Y314); assay: pull-down; 100 pmol His-NOSIP-MBP (WT or K78A/K79A) or MBP immobilised on amylose beads, 100 pmol purified His-tagged NTR, with or without 300 pmol RanQ69L(1-180)-GTP, 3 h, 4 °C, TPB; SDS-PAGE, Coomassie; both purified
T2 sequence: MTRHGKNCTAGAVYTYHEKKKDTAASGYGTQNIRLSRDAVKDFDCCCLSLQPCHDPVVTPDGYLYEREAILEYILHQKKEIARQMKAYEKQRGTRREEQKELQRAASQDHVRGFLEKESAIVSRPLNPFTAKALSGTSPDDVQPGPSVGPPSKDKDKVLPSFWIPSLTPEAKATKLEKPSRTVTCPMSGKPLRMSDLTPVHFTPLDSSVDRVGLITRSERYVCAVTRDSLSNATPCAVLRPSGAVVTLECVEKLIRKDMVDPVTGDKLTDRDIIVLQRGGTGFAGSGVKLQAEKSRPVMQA

His-NOSIP-MBP K78AK79A = target: T3, His-NOSIP-MBP K78AK79A (UniProt Q9Y314); assay: as above
T3 sequence: T2 sequence with K78A, K79A

- binding [1]: no binding
- binding (His-importin 13): no binding
- binding [2]: binds
- binding [3]: binds
- binding [4]: no binding
B1: His-NOSIP (protein, UniProt Q9Y314 1-301)
chain: T2 sequence

- binding [5]: binds
- binding (His-NOSIP-MBP K78AK79A): binds
B2: His-importin 5 (protein, UniProt O00410 1-1097)
chain: MAAAAAEQQQFYLLLGNLLSPDNVVRKQAEETYENIPGQSKITFLLQAIRNTTAAEEARQMAAVLLRRLLSSAFDEVYPALPSDVQTAIKSELLMIIQMETQSSMRKKVCDIAAELARNLIDEDGNNQWPEGLKFLFDSVSSQNVGLREAALHIFWNFPGIFGNQQQHYLDVIKRMLVQCMQDQEHPSIRTLSARATAAFILANEHNVALFKHFADLLPGFLQAVNDSCYQNDDSVLKSLVEIADTVPKYLRPHLEATLQLSLKLCGDTSLNNMQRQLALEVIVTLSETAAAMLRKHTNIVAQTIPQMLAMMVDLEEDEDWANADELEDDDFDSNAVAGESALDRMACGLGGKLVLPMIKEHIMQMLQNPDWKYRHAGLMALSAIGEGCHQQMEGILNEIVNFVLLFLQDPHPRVRYAACNAVGQMATDFAPGFQKKFHEKVIAALLQTMEDQGNQRVQAHAAAALINFTEDCPKSLLIPYLDNLVKHLHSIMVLKLQELIQKGTKLVLEQVVTSIASVADTAEEKFVPYYDLFMPSLKHIVENAVQKELRLLRGKTIECISLIGLAVGKEKFMQDASDVMQLLLKTQTDFNDMEDDDPQISYMISAWARMCKILGKEFQQYLPVVMGPLMKTASIKPEVALLDTQDMENMSDDDGWEFVNLGDQQSFGIKTAGLEEKSTACQMLVCYAKELKEGFVEYTEQVVKLMVPLLKFYFHDGVRVAAAESMPLLLECARVRGPEYLTQMWHFMCDALIKAIGTEPDSDVLSEIMHSFAKCIEVMGDGCLNNEHFEELGGILKAKLEEHFKNQELRQVKRQDEDYDEQVEESLQDEDDNDVYILTKVSDILHSIFSSYKEKVLPWFEQLLPLIVNLICPHRPWPDRQWGLCIFDDVIEHCSPASFKYAEYFLRPMLQYVCDNSPEVRQAAAYGLGVMAQYGGDNYRPFCTEALPLLVRVIQSADSKTKENVNATENCISAVGKIMKFKPDCVNVEEVLPHWLSWLPLHEDKEEAVQTFNYLCDLIESNHPIVLGPNNTNLPKIFSIIAEGEMHEAIKHEDPCAKRLANVVRQVQTSGGLWTECIAQLSPEQQAAIQELLNSA
